Measured values reported in publication PMC4336329 (PLoS ONE, 2015).
The whole screen tested about 310,000 compounds, of which about 2,200 (0.71%) showed an effect of 50% or more. The effect is printed as a negative number. The list shows a part of the results.

These compounds were tested against human ether-à-go-go-related gene (hERG) potassium channel (human, UniProt Q12809) (assay: primary screen, population patch clamp on CHO cells stably expressing hERG).
Chain of human ether-à-go-go-related gene (hERG) potassium channel (Q12809 whole entry, looked up): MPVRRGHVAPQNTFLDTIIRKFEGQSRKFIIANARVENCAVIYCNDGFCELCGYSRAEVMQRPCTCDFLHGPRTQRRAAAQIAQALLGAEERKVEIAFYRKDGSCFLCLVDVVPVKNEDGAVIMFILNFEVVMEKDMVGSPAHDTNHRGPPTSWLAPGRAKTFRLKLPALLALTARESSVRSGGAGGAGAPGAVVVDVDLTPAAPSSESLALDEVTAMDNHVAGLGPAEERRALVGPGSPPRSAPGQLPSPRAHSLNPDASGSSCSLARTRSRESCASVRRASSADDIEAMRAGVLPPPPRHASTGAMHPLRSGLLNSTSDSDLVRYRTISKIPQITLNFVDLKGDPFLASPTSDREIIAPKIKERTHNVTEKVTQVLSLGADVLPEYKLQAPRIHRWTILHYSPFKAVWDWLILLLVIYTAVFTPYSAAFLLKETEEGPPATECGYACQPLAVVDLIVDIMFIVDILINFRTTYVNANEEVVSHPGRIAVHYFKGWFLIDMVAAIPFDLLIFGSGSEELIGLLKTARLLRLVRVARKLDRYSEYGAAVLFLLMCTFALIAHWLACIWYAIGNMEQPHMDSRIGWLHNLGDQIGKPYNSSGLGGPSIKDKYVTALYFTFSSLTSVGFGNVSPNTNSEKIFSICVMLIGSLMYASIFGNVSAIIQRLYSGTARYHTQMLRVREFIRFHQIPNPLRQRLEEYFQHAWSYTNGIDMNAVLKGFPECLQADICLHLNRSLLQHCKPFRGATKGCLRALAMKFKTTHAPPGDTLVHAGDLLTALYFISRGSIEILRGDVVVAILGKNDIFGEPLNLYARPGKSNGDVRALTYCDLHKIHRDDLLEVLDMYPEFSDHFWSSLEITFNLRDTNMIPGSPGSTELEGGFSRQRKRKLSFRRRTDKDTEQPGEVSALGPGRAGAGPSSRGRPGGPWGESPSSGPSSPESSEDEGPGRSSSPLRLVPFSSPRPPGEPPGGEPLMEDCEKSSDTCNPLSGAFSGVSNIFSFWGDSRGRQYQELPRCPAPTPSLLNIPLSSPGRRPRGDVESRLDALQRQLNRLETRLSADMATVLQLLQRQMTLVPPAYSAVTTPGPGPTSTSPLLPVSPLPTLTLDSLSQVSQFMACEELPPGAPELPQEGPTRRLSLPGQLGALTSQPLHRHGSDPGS

In order of rising “hERG current change (%, negative = inhibition) at 1uM” value:
1. CC1CN(C(=O)CCC(=O)NCCCN2CCC(Cc3ccccc3)CC2)c2cc(Cl)ccc2O1 (stereo not shown)  -62.2%
2. CCOC(=O)C1(CCOc2ccccc2)CCN(Cc2cc(OC)cc(OC)c2)CC1  -61.5%
3. CCOC(=O)c1[nH]c2ccccc2c1N=CN(CC)CC  -33.1%
4. O=C1[C@H]2[C@@H](C(=O)N1c1cccc3ccccc13)C1(C(=O)c3ccccc3C1=O)N1CCC[C@@H]21  -21.9%
5. CC(C)c1ccc(/C=N/N2CCCCC2)cc1.O=C(O)C(=O)O  -17%
6. CCOC(=O)C1(Cc2ccccc2C(F)(F)F)CCN(C2CCCC2)CC1  -6.3%
7. CCOc1cccc2cc(-c3csc(NC(=O)CCC(=O)NCCCN4CCC(C)CC4)n3)c(=O)oc12  -5.6%
8. CCN1C(=O)C(CC(=O)NC)N(NC(=O)c2ccccc2)C1=S (stereo not shown)  -5.12%
9. Cc1ccc2c(c1)C1CN(C)CCC1N2Sc1ccccc1[N+](=O)[O-] (stereo not shown)  -4.1%
10. CN1CCN(c2ccc([N+](=O)[O-])cc2Cl)CC1  -3.54%
11. COc1cccc(CNC(=O)C(=O)NCC2CCCO2)c1 (stereo not shown)  -3.14%
12. CCN(CC1CCCN(CCc2cccc(F)c2)C1)C(=O)c1cc(C)oc1C (stereo not shown)  -2.34%
13. CCc1nnc(NC(=O)CSc2nccn2-c2ccccc2)s1  -1.09%
14. CN1/C(=C\C(=O)c2cccnc2)Sc2ccccc21  -0.793%
15. Cc1ccc(/C=C/C(=O)N2CCN(S(=O)(=O)c3c(C)c(C)cc(C)c3C)CC2)o1  0.237%
16. CCOC(=O)C1CCN(c2ncnc3c2oc2ccc(Cl)cc23)CC1  0.808%
17. CCOC(=O)c1c(-c2ccccc2)csc1/N=C/C1C(=O)CCCC1=O  1.64%
18. O=C(COc1ccc(-c2nnc(N3CCCCC3)c3ccccc23)cc1)N1CCCCC1  1.74%
19. COc1ccc(N2CCN(Cc3nc4ccccc4n3C)CC2)cc1  1.75%
20. CCN(C(=O)COC(=O)c1c(NC(C)=O)sc(C)c1C)C1CCS(=O)(=O)C1 (stereo not shown)  2.35%
21. COc1ccc(N2CCN(C(=O)C3CCCN(S(=O)(=O)c4ccc(C)cc4)C3)CC2)cc1 (stereo not shown)  2.69%
22. Cc1nc(CC(=O)c2ccc(O)c(C)c2O)cs1  2.96%
23. CCOC(=O)C1=C(C)N(C)C(=O)NC1c1ccccc1OC (stereo not shown)  3.54%
24. O=C(CN(CCc1ccccc1)Cc1ccccc1)Oc1ccccc1P(=O)(O)O  3.81%
25. Cc1occc1C(=O)NC1CCCc2ccccc21 (stereo not shown)  3.86%
26. CCCc1cc(C(=O)Nc2ccc(C(=O)c3ccc(F)cc3)cc2)n(C)n1  3.92%
27. CCOCCCN(C(=O)c1snc(C(N)=O)c1N)C(C(=O)NC(C)(C)C)c1ccc(Cl)cc1 (stereo not shown)  3.97%
28. Cc1ccc(S(=O)(=O)NCC23C=CC(O2)C2C(=O)N(c4ccccc4)C(=O)C23)cc1 (stereo not shown)  4.09%
29. CCCCOC(=O)c1nnc(-c2ccccc2)o1  4.7%
30. CCc1nnc(N2C(=N)SCC2=O)s1  4.71%
31. CN(CCCCCCCCCCN(C)C(=O)Oc1cccc([N+](C)(C)C)c1)C(=O)Oc1cccc([N+](C)(C)C)c1.[Br-]  5.1%
32. COc1cc(C(=S)N2CCOCC2)cc(OC)c1OC(=O)c1ccc([N+](=O)[O-])cc1[N+](=O)[O-]  5.28%
33. CSCC[C@H](NC(=O)C1CCN(S(=O)(=O)c2ccc(C)cc2)CC1)C(=O)NC1CCS(=O)(=O)C1 (stereo partly shown)  5.8%
34. CCOc1cc(N2CCOCC2)c(OCC)cc1NC(=O)C(NC(=O)c1ccco1)C(C)C (stereo not shown)  6.38%
35. COc1ccc(NC(=O)CSc2nnc(-c3ccccn3)n2N)c(OC)c1  6.79%
36. Brc1ccc(CN2CC[C@H]3C=CCc4cccc(c43)C2)cc1  6.81%
37. O=C(Nc1ccc(Br)cc1)c1cc2ccccn2n1  6.87%
38. Cn1c(=O)n(C)c2cc(NC(=O)CSc3nnc(-c4ccccc4O)n3-c3ccccc3)ccc21  6.95%
39. Cc1cc(OCC(=O)NC2CCN(Cc3ccccc3)CC2)c2c(C)c(C)c(=O)oc2c1  7.38%
40. COC(=O)/C=C1\SC(=NC(=O)c2ccc(OC)cc2)NC1=O  7.43%
41. Cc1ccc(S(=O)(=O)N2CCOC2CNC(=O)C(=O)NCc2ccncc2)cc1 (stereo not shown)  7.58%
42. Cn1cc(/C=C/C(=O)N2CCCC(C(=O)c3cccc4ccccc34)C2)cn1 (stereo not shown)  7.72%
43. Cc1cccc(C)c1N=Cc1c(O)n(-c2nccs2)c(=O)c2ccccc12  7.89%
44. O=C(Cc1cccc2ccccc12)NNC(=O)c1ccc(Br)o1  8.02%
45. COc1ccc(Br)cc1/C=N/Nc1ccc(Cl)c(C(=O)O)c1  8.36%
46. CCOc1ccc(OCCOCCOc2ccccc2Cl)cc1  8.45%
47. O=C1c2ccccc2NC(c2ccccc2F)N1NS(=O)(=O)c1ccccc1 (stereo not shown)  8.67%
48. Nc1nc(SCC(=O)NCc2ccccc2Cl)[nH]c(=O)c1NC(=O)c1ccccc1F  8.82%
49. CCCCn1c(N)c(N(CCOC)C(=O)CSc2n[nH]c(-c3ccc(OC)cc3)n2)c(=O)[nH]c1=O  8.98%
50. COc1ccc(S(=O)(=O)NCCSCc2ccco2)cc1Cl  9.28%
51. CC1(C(=O)OCC(=O)NC(=O)NCc2ccccc2)CC1(Cl)Cl (stereo not shown)  9.76%
52. COc1ccc(NC(=O)COC(=O)[C@@H]2CCCN2C(=O)c2cccs2)c(OC)c1  9.78%
53. Cc1c(NC(=O)CCCCCN2C(=O)C3C4C=CC(C4)C3C2=O)c(=O)n(-c2ccccc2)n1C (stereo not shown)  9.79%
54. COc1ccccc1C(=O)COC(=O)Cn1[nH]c(=O)c2ccccc2c1=O  10.2%
55. Cc1cc(F)ccc1S(=O)(=O)Nc1ccccc1C(=O)Nc1ccccc1-c1nc2ccccc2[nH]1  10.7%
56. O=C(NCCCN1CCCC1=O)c1cc(S(=O)(=O)N2CCOCC2)ccc1Cl  10.8%
57. O=C(Nc1ccc2c(c1)OCCO2)c1ccc(CN2CCOCC2)cc1  11.2%
58. CCCSc1cc(=O)n(-c2ccc(F)cc2)nc1C(=O)OCC  11.4%
59. CCOC(=O)Cn1cnc2c(cnn2-c2ccc(Cl)cc2)c1=O  11.6%
60. O=C1c2ccccc2CN1CCNC(=S)NC1CCCCC1  11.9%
61. O=C(CCS(=O)(=O)c1ccc(Br)cc1)NCc1ccco1  12.1%
62. COc1ccc(C(Nc2ccc(S(=O)(=O)NCC3CCCO3)cc2)C(=O)NC(C)(C)C)cc1OC (stereo not shown)  12.2%
63. CCNc1nc(NCC)n2c(SCC(=O)c3ccccc3F)nnc2n1  12.5%
64. Cc1cc(C)c(S(=O)(=O)N2CCCC2=O)cc1N(C)S(C)(=O)=O  13.2%
65. CC(=O)Nc1ccc(S(=O)(=O)NCc2ccc(C(=O)N3CCOCC3)cc2)cc1  13.4%
66. CC(C)C[C@H](CO)Nc1nc(Nc2cccc(Cl)c2)c2ncn(C(C)C)c2n1  13.6%
67. CCOc1cc2[nH]c(=S)n(Cc3ccc(C(=O)O)cc3)c(=O)c2cc1OCC  13.7%
68. CCOC(=O)C1CCN(Cc2nnc(-c3ccccc3C)o2)CC1.Cl  13.8%
69. CCCOc1ccc(CSC(=N)N)cc1C(=O)OC.Cl  14%
70. CC(=O)OC1COC(N2CCc3ccccc32)C(OC(C)=O)C1OC(C)=O (stereo not shown)  14.1%
71. O=C(NNC(=O)C(O)(c1ccccc1)c1ccccc1)C1CC1  14.2%
72. CC(=O)Oc1ccc(C(=O)NCCc2ccccc2)cc1  14.5%
73. CCCCn1c(N)c(N(CCOC)C(=O)C2CCN(S(=O)(=O)c3ccc(C)cc3C)CC2)c(=O)[nH]c1=O  14.6%
74. O=C(NC1CCCCC1)c1n[nH]c2c1CC(c1ccccc1)CC2 (stereo not shown)  14.7%
75. COc1ccc(-c2nnc(NC(=O)c3cccs3)s2)c(OC)c1  15.4%
76. Cn1c(=O)c2c(nc3n2CC(O)CN3c2ccccc2)n(C)c1=O (stereo not shown)  15.8%
77. N#CN/C(=N\S(=O)(=O)c1ccccc1)c1ccccc1  15.9%
78. OCC[C@@H]1C[C@@H](O)[C@H](O)[C@@]2(OCc3ccccc32)O1  16%
79. Cc1ccc(-n2nc3c(=O)n(CC(=O)NCc4ccccc4Cl)nc(C)c3c2C)cc1  16%
80. C#CCNC(=O)C1=C[C@@H](C2CC2)[C@H](CCCO)[C@@H](OCC)O1  16.1%
81. Cl.Nc1ccc(-c2nc3c(ccc4ccccc43)[nH]2)cc1  16.3%
82. COc1cccc(CNC(=O)CN(C)S(=O)(=O)c2ccc3c(c2)c(=O)n(C)c(=O)n3C)c1  17.3%
83. COc1ccccc1/C=C/C(=O)Nc1ccc(N2CCOCC2)cc1  19.2%
84. Cc1nc(-c2ccccc2)sc1-c1ccn[nH]1  20.5%
85. CCN(C(=O)COC(=O)CNC(=O)c1sc2ccccc2c1Cl)C1CCCCC1  27.9%
